According to the supplement of paper PMC8728848:
This is one part of the list.

What was measured:
Experiment in all cases: glycan array binding signal (z-score within array); higher = stronger binding
Conditions in all cases: glycan notation: IUPAC condensed, linker removed
[1] = target: Gal3S(b1-3)[Fuc(a1-4)]GlcNAc
Summary of the method: (§1)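 The binding signal is a Z-score computed within each array. Data were drawn from 3228 arrays in the Consortium for Functional Glycomics database, restricted to those with a known protein sequence. Scores were averaged over arrays of the same protein sequence at different concentrations or buffers, and over linkers, and negative values can be taken as non-binding.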

Gal3S(b1-4)Glc = target: Gal3S(b1-4)Glc
Summary of the method: as §1

Gal3S(b1-4)Glc6S = target: Gal3S(b1-4)Glc6S
Summary of the method: as §1

Gal3S(b1-4)GlcNAc = target: Gal3S(b1-4)GlcNAc
Summary of the method: as §1

[2] = target: Gal3S(b1-4)[Fuc(a1-3)]Glc6S
Summary of the method: as §1

[3] = target: Gal3S(b1-4)[Fuc(a1-3)]GlcNAc
Summary of the method: as §1

[4] = target: Gal3S(b1-4)[Fuc(a1-3)]GlcNAc6S
Summary of the method: as §1

Gal3S4S(b1-4)GlcNAc = target: Gal3S4S(b1-4)GlcNAc
Summary of the method: as §1

Gal3S6S(b1-4)GlcNAc = target: Gal3S6S(b1-4)GlcNAc
Summary of the method: as §1

Gal3S6S(b1-4)GlcNAc6S = target: Gal3S6S(b1-4)GlcNAc6S
Summary of the method: as §1

Gal4S(b1-4)GlcNAc = target: Gal4S(b1-4)GlcNAc
Summary of the method: as §1

Gal4S6S(b1-4)GlcNAc = target: Gal4S6S(b1-4)GlcNAc
Summary of the method: as §1

Gal6P(b1-4)GlcNAc = target: Gal6P(b1-4)GlcNAc
Summary of the method: as §1

Gal6S(b1-3)GlcNAc = target: Gal6S(b1-3)GlcNAc
Summary of the method: as §1

Gal6S(b1-3)GlcNAc6S = target: Gal6S(b1-3)GlcNAc6S
Summary of the method: as §1

Gal6S(b1-4)Glc = target: Gal6S(b1-4)Glc
Summary of the method: as §1

Gal6S(b1-4)Glc6S = target: Gal6S(b1-4)Glc6S
Summary of the method: as §1

Gal6S(b1-4)GlcNAc = target: Gal6S(b1-4)GlcNAc
Summary of the method: as §1

Gal6S(b1-4)GlcNAc6S = target: Gal6S(b1-4)GlcNAc6S
Summary of the method: as §1

GalNAc(a1-3)Gal = target: GalNAc(a1-3)Gal
Summary of the method: as §1

GalNAc(a1-3)GalNAc = target: GalNAc(a1-3)GalNAc
Summary of the method: as §1

[5] = target: GalNAc(a1-3)GalNAc(b1-3)Gal(a1-4)Gal(b1-4)Glc
Summary of the method: as §1

[6] = target: GalNAc(a1-3)GalNAc(b1-3)Gal(a1-4)Gal(b1-4)GlcNAc
Summary of the method: as §1

GalNAc(b1-3)Gal = target: GalNAc(b1-3)Gal
Summary of the method: as §1

[7] = target: GalNAc(b1-3)Gal(a1-4)Gal(b1-4)GlcNAc
Summary of the method: as §1

[8] = target: GalNAc(b1-3)Gal(a1-4)Gal(b1-4)GlcNAc(b1-3)Gal(b1-4)Glc
Summary of the method: as §1

[9] = target: GalNAc(b1-3)Gal(a1-6)Gal(b1-4)Glc
Summary of the method: as §1

GalNAc(b1-3)GalNAc = target: GalNAc(b1-3)GalNAc
Summary of the method: as §1

GalNAc(b1-3)GlcNAc = target: GalNAc(b1-3)GlcNAc
Summary of the method: as §1

GalNAc(b1-4)Gal(b1-4)Glc = target: GalNAc(b1-4)Gal(b1-4)Glc
Summary of the method: as §1

GalNAc(b1-4)GlcNAc = target: GalNAc(b1-4)GlcNAc
Summary of the method: as §1

[10] = target: GalNAc(b1-4)GlcNAc(b1-2)Man
Summary of the method: as §1

[11] = target: GalNAc(b1-4)GlcNAc(b1-2)Man(a1-3)[GalNAc(b1-4)GlcNAc(b1-2)Man(a1-6)]Man(b1-4)GlcNAc(b1-4)GlcNAc
Summary of the method: as §1

[12] = target: GalNAc(b1-4)GlcNAc(b1-3)GalNAc(b1-4)GlcNAc
Summary of the method: as §1

GalNAc(b1-4)GlcNAc6S = target: GalNAc(b1-4)GlcNAc6S
Summary of the method: as §1

GalNAc(b1-6)GalNAc = target: GalNAc(b1-6)GalNAc
Summary of the method: as §1

GalNAc3S(b1-4)GlcNAc = target: GalNAc3S(b1-4)GlcNAc
Summary of the method: as §1

GalNAc3S(b1-4)GlcNAc3S = target: GalNAc3S(b1-4)GlcNAc3S
Summary of the method: as §1

[13] = target: GalNAc3S(b1-4)[Fuc(a1-3)]GlcNAc
Summary of the method: as §1

GalNAc4S6S(b1-4)GlcNAc = target: GalNAc4S6S(b1-4)GlcNAc
Summary of the method: as §1

GalNAc6S(b1-4)GlcNAc = target: GalNAc6S(b1-4)GlcNAc
Summary of the method: as §1

Glc(a1-4)Glc = target: Glc(a1-4)Glc
Summary of the method: as §1

[14] = target: Glc(a1-4)Glc(a1-4)Glc(a1-4)Glc
Summary of the method: as §1

Glc(a1-6)Glc(a1-6)Glc = target: Glc(a1-6)Glc(a1-6)Glc
Summary of the method: as §1

[15] = target: Glc(a1-6)Glc(a1-6)Glc(a1-6)Glc
Summary of the method: as §1

B1: SSR2 (Sclerotium rolfsii) (protein)
chain: MVYKITVRVYQTNPDAFFHPVEKTVWKYANGGTWSITDDQHVLTMGGSGTSGTLRFHADNGESFTATFGVHNYKRWCDIVTNLAADETGMVINQQYYSQKNREEARERQLSNYQVKNAKGRNFQIVYTEAEGNDLHANLIIG
For B1, the “glycan array binding signal (z-score)” value [1] was -0.279, the “glycan array binding signal (z-score)” value (Gal3S(b1-4)Glc) was -0.273 and the “glycan array binding signal (z-score)” value (Gal3S(b1-4)Glc6S) was -0.275. The “glycan array binding signal (z-score)” value (Gal3S(b1-4)GlcNAc) was -0.273, the “glycan array binding signal (z-score)” value [2] was -0.252 and the “glycan array binding signal (z-score)” value [3] was -0.29. For the same binder, the “glycan array binding signal (z-score)” value [4] was -0.29, the “glycan array binding signal (z-score)” value (Gal3S4S(b1-4)GlcNAc) was -0.288 and the “glycan array binding signal (z-score)” value (Gal3S6S(b1-4)GlcNAc) was -0.287. The “glycan array binding signal (z-score)” value (Gal3S6S(b1-4)GlcNAc6S) was -0.27, the “glycan array binding signal (z-score)” value (Gal4S(b1-4)GlcNAc) was -0.297 and the “glycan array binding signal (z-score)” value (Gal4S6S(b1-4)GlcNAc) was -0.279. The “glycan array binding signal (z-score)” value (Gal6P(b1-4)GlcNAc) was -0.287, the “glycan array binding signal (z-score)” value (Gal6S(b1-3)GlcNAc) was -0.289 and the “glycan array binding signal (z-score)” value (Gal6S(b1-3)GlcNAc6S) was -0.29. The “glycan array binding signal (z-score)” value (Gal6S(b1-4)Glc) was -0.29, the “glycan array binding signal (z-score)” value (Gal6S(b1-4)Glc6S) was -0.265 and the “glycan array binding signal (z-score)” value (Gal6S(b1-4)GlcNAc) was -0.277. The “glycan array binding signal (z-score)” value (Gal6S(b1-4)GlcNAc6S) was -0.283, the “glycan array binding signal (z-score)” value (GalNAc(a1-3)Gal) was -0.284 and the “glycan array binding signal (z-score)” value (GalNAc(a1-3)GalNAc) was -0.275. The “glycan array binding signal (z-score)” value [5] was -0.291, the “glycan array binding signal (z-score)” value [6] was -0.279 and the “glycan array binding signal (z-score)” value (GalNAc(b1-3)Gal) was -0.297. The “glycan array binding signal (z-score)” value [7] was -0.294, the “glycan array binding signal (z-score)” value [8] was -0.282 and the “glycan array binding signal (z-score)” value [9] was -0.281. The “glycan array binding signal (z-score)” value (GalNAc(b1-3)GalNAc) was -0.235, the “glycan array binding signal (z-score)” value (GalNAc(b1-3)GlcNAc) was -0.264 and the “glycan array binding signal (z-score)” value (GalNAc(b1-4)Gal(b1-4)Glc) was -0.265. The “glycan array binding signal (z-score)” value (GalNAc(b1-4)GlcNAc) was -0.285, the “glycan array binding signal (z-score)” value [10] was -0.284 and the “glycan array binding signal (z-score)” value [11] was -0.274. The “glycan array binding signal (z-score)” value [12] was -0.283, the “glycan array binding signal (z-score)” value (GalNAc(b1-4)GlcNAc6S) was -0.294 and the “glycan array binding signal (z-score)” value (GalNAc(b1-6)GalNAc) was -0.282. For the same binder, the “glycan array binding signal (z-score)” value (GalNAc3S(b1-4)GlcNAc) was -0.287, the “glycan array binding signal (z-score)” value (GalNAc3S(b1-4)GlcNAc3S) was -0.285 and the “glycan array binding signal (z-score)” value [13] was -0.294. The “glycan array binding signal (z-score)” value (GalNAc4S6S(b1-4)GlcNAc) was -0.291, the “glycan array binding signal (z-score)” value (GalNAc6S(b1-4)GlcNAc) was -0.29 and the “glycan array binding signal (z-score)” value (Glc(a1-4)Glc) was -0.262. The “glycan array binding signal (z-score)” value [14] was -0.286, the “glycan array binding signal (z-score)” value (Glc(a1-6)Glc(a1-6)Glc) was -0.283 and the “glycan array binding signal (z-score)” value [15] was -0.284.
